Assay results: patent publication US12116388B2, “Amylin receptor agonists” (Novo Nordisk A/S, priority 2022, dated 2024)
At least one compound was matched to its structure with a doubt left. Starred links: 1 amine or outer side, 2 acyl side, 3 side chain; linkers in the order of their positions; H or OH if unused. Residues, ends and D or L forms follow the SMILES beside them. *: point of attachment. C20 diacid = O=C(O)CCCCCCCCCCCCCCCCCCC(=O)*; C18 diacid = O=C(O)CCCCCCCCCCCCCCCCC(=O)*; γGlu = O=C(O)[C@H](CCC(=O)[*:2])N[*:1]

System: Sprague Dawley (SD) rats
Assay: Acute food intake in ad libitum fed rat model
Assay type: in vivo
Conditions: single s.c. administration, negative value = reduced food intake
Procedure: Lyophilised compound was dissolved in vehicle, 8 mM phosphate, 250 mM glycerol, 0.007% polysorbate 20, and pH was adjusted to 7.4 with 1N NaOH.
Normal weight Sprague Dawley (SD) rats from Taconic Europe, Denmark, were used for the acute food intake studies. The purpose of these studies was to test in vivo effect on food intake and to provide an indication of the compounds' duration of action. Experiments were conducted with permission from the Danish Animal Experiments Inspectorate and were performed in accordance with the guidelines of the Danish legislation governing animal experimentation (1987) as well as the National Institutes of Health (publication number 85-23) and the European Convention for the Protection of Vertebrate Animals used for Experimental and other Scientific Purposes (Council of Europe No 123, Strasbourg 1985).
Prior to study start, rats were acclimatized to the experimental settings for 14 days. During this period, the animals were handled at least 2 times. Immediately upon arrival, rats were put on a reversed light cycle (dark from 10 am-10 pm or 11 am-11 pm) and were transferred into one of three following food intake measuring systems: FeedWin, BioDaq or HM2. Rats were single housed in the FeedWin and BioDaq system and were housed three a cage in the HM2 system (rats were in this case ID-chipped). During the acclimatization period, in which the rats get used to the new light cycle and diet, the animals had free access to food and water. […] Each amylin analogue was tested in a group of 5-6 rats. A vehicle group of 5-6 rats was included in each experiment and were used as reference point. In case of studies in the HM2 system, rats in same cage received different treatments to eliminate interference of potential technical variations between cages. At start of treatment, rats were dosed once (subcutaneously) based on body weight with a protracted amylin analogue, receiving a dose of 3 nmol/kg. The time of dosing was recorded for each rat.
After dosing, rats were returned to their home cages, where they had access to food and water. Food consumption was recorded individually and continuously by on-line registration for up to 72 h post dosing. At the end of the experiment, body weight was measured again, and animals were euthanized by CO2 overdose.

| SMILES | Food intake relative to vehicle (%) 0-24 hr, 3 nmol/kg [%] | Food intake relative to vehicle (%) 24-48 hr, 3 nmol/kg [%] | Food intake relative to vehicle (%) 48-72 hr, 3 nmol/kg [%] |
| --- | --- | --- | --- |
| CC[C@H](C)[C@H](NC(=O)[C@H](C)NC(=O)CNC(=O)[C@H](Cc1ccccc1)NC(=O)[C@@H]1CCCN1C(=O)[C@H](CC(=O)O)NC(=O)[C@H](CO)NC(=O)[C@H](CO)NC(=O)[C@H](Cc1c[nH]cn1)NC(=O)[C@H](Cc1c[nH]cn1)NC(=O)[C@H](CC(C)C)NC(=O)[C@H](Cc1ccccc1)NC(=O)[C@H](CCC(=O)O)NC(=O)[C@H](C)NC(=O)[C@H](CC(C)C)NC(=O)[C@H](CCCNC(=N)N)NC(=O)[C@H](CCC(N)=O)NC(=O)[C@@H](NC(=O)[C@H](CCC(N)=O)NC(=O)[C@H](C)NC(=O)[C@@H](NC(=O)[C@H](CO)NC(=O)[C@H](CC(C)C)NC(=O)[C@H](CCC(N)=O)NC(=O)[C@H](CO)NC(=O)[C@H](C)NC(=O)CC[C@H](NC(=O)CCCCCCCCCCCCCCCCC(=O)O)C(=O)O)[C@@H](C)O)[C@@H](C)O)C(=O)N1CCC[C@H]1C(=O)N[C@@H](CO)C(=O)N[C@@H](CO)C(=O)N[C@H](C(=O)N[C@@H](CC(=O)O)C(=O)N[C@H](C(=O)NCC(=O)N1CCC[C@H]1C(=O)N[C@@H](CC(=O)O)C(=O)N[C@H](C(=O)N1CCC[C@H]1C(N)=O)[C@@H](C)O)C(C)C)[C@@H](C)O [Compound 24] ({C18 diacid-γGlu}-ASQLSTAQTQRLAEFLHHSSDPFGAIPSSTDVGPDTP-NH2) | −75 | −79 | −6 |
| CC[C@H](C)[C@H](NC(=O)[C@H](C)NC(=O)CNC(=O)[C@H](Cc1ccccc1)NC(=O)[C@@H]1CCCN1C(=O)[C@H](CC(=O)O)NC(=O)[C@H](CO)NC(=O)[C@H](CO)NC(=O)[C@H](Cc1c[nH]cn1)NC(=O)[C@H](Cc1c[nH]cn1)NC(=O)[C@H](CC(C)C)NC(=O)[C@H](Cc1ccccc1)NC(=O)[C@H](CCC(=O)O)NC(=O)[C@H](C)NC(=O)[C@H](CC(C)C)NC(=O)[C@H](CCCNC(=N)N)NC(=O)[C@H](CCC(N)=O)NC(=O)[C@@H](NC(=O)[C@H](CCC(N)=O)NC(=O)[C@H](C)NC(=O)[C@@H](NC(=O)[C@H](CO)NC(=O)[C@H](CC(C)C)NC(=O)[C@H](Cc1c[nH]cn1)NC(=O)[C@H](CO)NC(=O)[C@H](C)NC(=O)CC[C@H](NC(=O)CCCCCCCCCCCCCCCCCCC(=O)O)C(=O)O)[C@@H](C)O)[C@@H](C)O)C(=O)N1CCC[C@H]1C(=O)N[C@@H](CO)C(=O)N[C@@H](CO)C(=O)N[C@H](C(=O)N[C@@H](CC(=O)O)C(=O)N[C@H](C(=O)NCC(=O)N1CCC[C@H]1C(=O)N[C@@H](CC(=O)O)C(=O)N[C@H](C(=O)N1CCC[C@H]1C(N)=O)[C@@H](C)O)C(C)C)[C@@H](C)O [Compound 6, N^1-[(4S)-4-carboxy-4-(19-carboxynonadecanoylamino)butanoyl]-[Ala1,Ser2,His3,Leu4,Ser5,Ala7,Gln8,Glu14,His17,Asp21,Pro22,Pro27,Asp31,Pro34,Asp35,Pro37]-human amylin] ({C20 diacid-γGlu}-ASHLSTAQTQRLAEFLHHSSDPFGAIPSSTDVGPDTP-NH2) | −45 | −90 | −66 |
| CC[C@H](C)[C@H](NC(=O)[C@@H]1CCCN1C(=O)CNC(=O)[C@H](Cc1ccccc1)NC(=O)[C@H](CC(N)=O)NC(=O)[C@H](CC(=O)O)NC(=O)[C@H](CO)NC(=O)[C@H](CO)NC(=O)[C@H](Cc1c[nH]cn1)NC(=O)[C@H](Cc1c[nH]cn1)NC(=O)[C@H](CC(C)C)NC(=O)[C@H](Cc1ccccc1)NC(=O)[C@H](CCC(=O)O)NC(=O)[C@H](C)NC(=O)[C@H](CC(C)C)NC(=O)[C@H](CCCNC(=N)N)NC(=O)[C@H](C)NC(=O)[C@@H](NC(=O)[C@H](CCC(N)=O)NC(=O)[C@H](C)NC(=O)[C@@H](NC(=O)[C@H](CO)NC(=O)[C@H](CC(C)C)NC(=O)[C@H](C)NC(=O)[C@H](CO)NC(=O)[C@H](C)NC(=O)CC[C@H](NC(=O)CCCCCCCCCCCCCCCCC(=O)O)C(=O)O)[C@@H](C)O)[C@@H](C)O)C(=O)N[C@@H](CC(C)C)C(=O)N1CCC[C@H]1C(=O)N1CCC[C@H]1C(=O)N[C@H](C(=O)N[C@@H](CC(=O)O)C(=O)N[C@H](C(=O)NCC(=O)N[C@@H](CO)C(=O)N[C@@H](CC(N)=O)C(=O)N[C@H](C(=O)N1CCC[C@H]1C(N)=O)[C@@H](C)O)C(C)C)[C@@H](C)O [Compound 23, N^1-[(4S)-4-carboxy-4-(17-carboxyheptadecanoylamino)butanoyl]-[Ala1,Ser2,Ala3,Leu4,Ser5,Ala7,Gln8,Ala10,Glu14,His17,Asp21,Pro25,Pro28,Pro29,Asp31,Pro37]-human amylin] ({C18 diacid-γGlu}-ASALSTAQTARLAEFLHHSSDNFGPILPPTDVGSNTP-NH2) | −79 | −67 | 7 |
| CC[C@H](C)[C@H](NC(=O)[C@@H]1CCCN1C(=O)CNC(=O)[C@H](Cc1ccccc1)NC(=O)[C@H](Cc1c[nH]cn1)NC(=O)[C@H](Cc1c[nH]cn1)NC(=O)[C@H](CC(C)C)NC(=O)[C@H](Cc1ccccc1)NC(=O)[C@H](CCC(=O)O)NC(=O)[C@H](C)NC(=O)[C@H](CC(C)C)NC(=O)[C@H](CCCNC(=N)N)NC(=O)[C@H](C)NC(=O)[C@@H](NC(=O)[C@H](CCC(N)=O)NC(=O)[C@H](C)NC(=O)[C@@H](NC(=O)[C@H](CO)NC(=O)[C@H](CC(C)C)NC(=O)[C@H](Cc1c[nH]cn1)NC(=O)[C@H](CO)NC(=O)[C@H](C)NC(=O)CC[C@H](NC(=O)CCCCCCCCCCCCCCCCC(=O)O)C(=O)O)[C@@H](C)O)[C@@H](C)O)C(=O)N[C@@H](CC(C)C)C(=O)N1CCC[C@H]1C(=O)N1CCC[C@H]1C(=O)N[C@H](C(=O)N[C@@H](CC(=O)O)C(=O)N[C@H](C(=O)NCC(=O)N[C@@H](CO)C(=O)N[C@@H](CCC(=O)O)C(=O)N[C@H](C(=O)N1CCC[C@H]1C(N)=O)[C@@H](C)O)C(C)C)[C@@H](C)O [Compound 43, N^1-[(4S)-4-carboxy-4-(17-carboxyheptadecanoylamino)butanoyl]-[Ala1,Ser2,His3,Leu4,Ser5,Ala7,Gln8,Ala10,Glu14,His17,Pro25,Pro28,Pro29,Asp31,Glu35,Pro37],des-(19-22)-human amylin] ({C18 diacid-γGlu}-ASHLSTAQTARLAEFLHHFGPILPPTDVGSETP-NH2) | −78 | −94 | −31 |
| CC[C@H](C)[C@H](NC(=O)[C@@H]1CCCN1C(=O)CNC(=O)[C@H](Cc1ccccc1)NC(=O)[C@H](CC(N)=O)NC(=O)[C@H](CC(=O)O)NC(=O)[C@H](CO)NC(=O)[C@H](CO)NC(=O)[C@H](Cc1c[nH]cn1)NC(=O)[C@H](Cc1c[nH]cn1)NC(=O)[C@H](CC(C)C)NC(=O)[C@H](Cc1ccccc1)NC(=O)[C@H](CCC(=O)O)NC(=O)[C@H](C)NC(=O)[C@H](CC(C)C)NC(=O)[C@H](CCCNC(=N)N)NC(=O)[C@H](C)NC(=O)[C@@H](NC(=O)[C@H](CCC(N)=O)NC(=O)[C@H](C)NC(=O)[C@@H](NC(=O)[C@H](CO)NC(=O)[C@H](CC(C)C)NC(=O)[C@H](CCC(N)=O)NC(=O)[C@H](CO)NC(=O)[C@H](C)NC(=O)CC[C@H](NC(=O)CCCCCCCCCCCCCCCCC(=O)O)C(=O)O)[C@@H](C)O)[C@@H](C)O)C(=O)N[C@@H](CC(C)C)C(=O)N1CCC[C@H]1C(=O)N1CCC[C@H]1C(=O)N[C@H](C(=O)N[C@@H](CC(=O)O)C(=O)N[C@H](C(=O)NCC(=O)N[C@@H](CO)C(=O)N[C@@H](CC(N)=O)C(=O)N[C@H](C(=O)N1CCC[C@H]1C(N)=O)[C@@H](C)O)C(C)C)[C@@H](C)O [Compound 22, N^1-[(4S)-4-carboxy-4-(17-carboxyheptadecanoylamino)butanoyl]-[Ala1,Ser2,Gln3,Leu4,Ser5,Ala7,Gln8,Ala10,Glu14,His17,Asp21,Pro25,Pro28,Pro29,Asp31,Pro37]-human amylin] ({C18 diacid-γGlu}-ASQLSTAQTARLAEFLHHSSDNFGPILPPTDVGSNTP-NH2) | −87 | −82 | −24 |
